Experimental data as given in PubChem BioAssay AID1452 (National Center for Advancing Translational Sciences (NCATS), 2008).
Where “and” joins values, the source holds several entries; their conditions need not be identical. Equal values may be shown once. Among all 150,000 compounds or so, about 190 (0.13%) were called active. The shares of active, inactive and inconclusive entries below differ from those in the screen. Calls follow the shape of the dose curve; as a rule, active = well fitted inhibition curve with a large enough effect; inconclusive = small, poorly fitted or top-dose-only effect; inactive = flat fitted curve, though single readings scatter. A potency beside an inconclusive call is a rough fit, not a confirmed value.

What follows are molecules tested against Polyunsaturated fatty acid lipoxygenase ALOX12 (Homo sapiens) (UniProt P18054) (assay: qHTS Assay for Inhibitors of 12-hLO (12-human lipoxygenase)). Conditions: purified 12-hLO, xylenol orange hydroperoxide absorbance; series mostly up to 57.1 µM.
Method in brief: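 Xylenol orange chromogenic assay: hydroperoxide from 12hLO oxidises Fe(II), giving red-shifted Fe(III)-XO absorbance. Conditions: 150 nM enzyme, 40 uM arachidonic acid, 25 mM Hepes pH 7.0, 0.01% Triton X-100, 30 min, room temperature.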
Also: nearly all actives have a fitted effect of over 55% in size.
Potency is read from the fitted curve at half-maximal effect; tags tell the direction and shape of the fitted curve.

UniProt P18054, sequence (P18054 whole entry, looked up): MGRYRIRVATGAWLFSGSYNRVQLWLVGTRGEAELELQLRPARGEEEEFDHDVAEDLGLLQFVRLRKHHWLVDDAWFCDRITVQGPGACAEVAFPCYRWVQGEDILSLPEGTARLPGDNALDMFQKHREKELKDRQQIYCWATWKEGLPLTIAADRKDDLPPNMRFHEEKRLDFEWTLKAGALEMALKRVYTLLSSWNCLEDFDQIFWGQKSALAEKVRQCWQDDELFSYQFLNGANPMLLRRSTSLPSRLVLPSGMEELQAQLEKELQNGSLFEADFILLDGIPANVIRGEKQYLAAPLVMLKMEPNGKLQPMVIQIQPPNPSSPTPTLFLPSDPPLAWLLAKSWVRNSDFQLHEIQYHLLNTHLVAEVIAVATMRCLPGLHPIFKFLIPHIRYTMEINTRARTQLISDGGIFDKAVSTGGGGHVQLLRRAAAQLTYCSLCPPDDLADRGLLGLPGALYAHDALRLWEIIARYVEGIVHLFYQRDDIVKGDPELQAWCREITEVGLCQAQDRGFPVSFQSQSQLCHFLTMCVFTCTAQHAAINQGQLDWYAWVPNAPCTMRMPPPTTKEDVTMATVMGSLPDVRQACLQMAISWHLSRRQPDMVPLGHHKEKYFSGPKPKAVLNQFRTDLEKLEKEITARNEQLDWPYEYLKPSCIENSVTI

Structure (SMILES) | Potency
CCCOc1ccc(C2NC(=S)NC(C)=C2C(=O)c2ccccc2)cc1OC (stereo not drawn) | inconclusive: 39.8 µM [inhibitor, single point]
CN1CC=C2C(C#N)=C(N)C(C#N)(C#N)[C@H](c3cccc(Cl)c3)C2C1 (stereo partly drawn) | inconclusive: 20 µM [inhibitor, partial curve]
S=c1[nH]nc(-c2ccccn2)n1/N=C/c1ccc(Br)s1 | inconclusive: 10 µM [inhibitor, partial curve]
O=C(O)CNS(=O)(=O)c1ccc(F)cc1 | inactive
C/C(=N\Nc1nc2c(s1)CCCC2)c1ccc(Cl)cc1 | inconclusive: 22.4 µM [inhibitor, partial curve]
C=CC(=O)c1ccc2ccccc2c1 | active: 2.51 µM
Brc1ccc2[nH]c3c(N4CCc5ccccc5C4)ncnc3c2c1 | inconclusive: 31.6 µM [inhibitor, single point]
COc1ccc(CNC(=S)Nc2cccc(C)c2C)cc1 | inconclusive: 25.1 µM [inhibitor, single point]
N=c1c(C(=O)NC2CCCC2)cc2c(=O)n3ccccc3nc2n1C1CCCC1 | active: 31.6 µM
N#CC(=C(/N)Sc1ccccc1N)/C(C#N)=C(/N)Sc1ccccc1N | inconclusive: 17.8 µM [inhibitor, single point] and inconclusive: 25.1 µM [inhibitor, partial curve]
Cc1ccc(/C=C/C2=Cc3c(sc(NC(=O)CSc4n[nH]c(N)n4)c3C#N)C(C)(C)C2)o1 | inconclusive: 14.1 µM [inhibitor, partial curve]
COc1ccc2c(CC(=O)N(C)CC3COc4ccccc4O3)coc2c1 (stereo not drawn) | inconclusive: 17.8 µM [inhibitor, single point]
O=C(CSc1n[nH]c(-c2ccccc2)n1)c1ccc(O)c(O)c1 | inconclusive: 1.26 µM [inhibitor, partial curve]
O=C(Nc1sc2c(c1C(=O)O)CCC2)c1ccccc1 | inactive
COc1ccc(C(=O)NC(=S)N(Cc2ccccc2)Cc2ccccc2)cc1 | inconclusive: 15.8 µM [inhibitor, partial curve]
CCCC(=O)NC(c1ccco1)c1cc(Cl)c2cccnc2c1O (stereo not drawn) | inconclusive: 3.16 µM [inhibitor, full curve]
Cc1cc[n+](-c2[nH]c(=O)sc2/C=N/NC([S-])=Nc2ccccc2)cc1 | inactive
OC1c2ccccc2-c2nc3ccccc3cc21 (stereo not drawn) | inactive
CC(=O)C1=C(C)NC(SCC(=O)c2ccc(Cl)c(Cl)c2)=C(C#N)C1c1ccco1 (stereo not drawn) | inconclusive: 25.1 µM [inhibitor, partial curve]

Structure (SMILES) | Potency
C=CCN1C(=O)[C@]2(c3ccccc31)C1CCCC=C1C(C#N)=C(N)C2(C#N)C#N (stereo partly drawn) | inconclusive: 17.8 µM [inhibitor, partial curve]
Cc1cc(NC(=S)NC(=O)C2CC2)ccc1Br | inconclusive: 14.1 µM [inhibitor, partial curve]
Cc1ccc(S(=O)(=O)N/N=C/c2cc(Br)c(C)o2)cc1 | inconclusive: 20 µM [inhibitor, partial curve]
O=C(N/N=C/c1ccc(O)cc1O)/C(=C/c1ccccc1)CCO | inactive
CCCCNC(=S)Nc1cccc2cnccc12 | inactive
CCCCCCC(=O)N(O)C1CC(=O)N(c2ccc(Br)cc2)C1=O (stereo not drawn) | inconclusive: 14.1 µM [inhibitor, partial curve]
Cc1c(C)n(C)c2ccc(C(=O)NCc3cccs3)cc12 | inactive
O=C(OCC#CCSc1nnc(-c2ccccc2)o1)c1cccs1 | inactive
CNC(=O)c1cc2cc(OC)ccc2oc1=N | inactive
COc1ccc(-c2nc3ccccc3c(=O)n2CCOc2ccc(C)cc2C)cc1 | inactive
O=C(NC(=S)Nc1ccc2c(c1)OCCO2)c1cccc2ccccc12 | inconclusive: 7.08 µM [inhibitor, partial curve]
O=C1Nc2ccccc2/C1=C/C(=O)c1cccs1 | inconclusive: 20 µM [inhibitor, single point]
O=C(CNC(=O)c1ccco1)OCc1ccc(Cl)cc1 | inactive
CCOC(=O)C(CSCC(=O)c1ccc(Cl)cc1Cl)NC(=O)OC(C)(C)C (stereo not drawn) | inconclusive: 12.6 µM [inhibitor, partial curve, poor fit]
COc1cccc(C(=O)Nn2c(C)nnc2-n2nc(C)cc2C)c1 | inactive
O=[N+]([O-])c1ccccc1/C=N/n1c(C2CCCCC2)n[nH]c1=S | inactive
S=C1NCCc2ccccc2C1c1ccccc1 (stereo not drawn) | active: 28.2 µM
COc1cc(NC(=S)NCCc2c[nH]c3ccccc23)c(OC)cc1Cl | inconclusive: 25.1 µM [inhibitor, single point]
Cc1onc(-c2c(Cl)cccc2Cl)c1C(=O)N/N=C(\N)COc1ccc(Cl)cc1 | inconclusive: 5.01 µM [inhibitor, partial curve]
